Experimental data reported in the GPR68 mutational scans of Howard et al. (2025).

B1: GPR68, Q15743 (parent)
chain: MGNITADNSSMSCTIDHTIHQTLAPVVYVTVLVVGFPANCLSLYFGYLQIKARNELGVYLCNLTVADLFYICSLPFWLQYVLQHDNWSHGDLSCQVCGILLYENIYISVGFLCCISVDRYLAVAHPFRFHQFRTLKAAVGVSVVIWAKELLTSIYFLMHEEVIEDENQHRVCFEHYPIQAWQRAINYYRFLVGFLFPICLLLASYQGILRAVRRSHGTQKSRKDQIQRLVLSTVVIFLACFLPYHVLLLVRSVWEASCDFAKGVFNAYHFSLLLTSFNCVADPVLYCFVSETTHRDLARLRGACLAFLTCSRTGRAREAYPLGAPEASGKSGAQGEEPELLTKLHPAFQTPNSPGSGGFPTGRLA

Key:
[1] = variants of: B1; assay: cAMP reporter score (Enrich2 score, wild type = 0); higher = more signal; HEK293T, FACS bins
[2] = variants of: B1; assay: surface expression score (Enrich2 score, wild type = 0); higher = more signal; HEK293T, FACS bins

Row | Variant | cAMP reporter score ([1]; pH 6) | cAMP reporter score ([1]; pH 6, modulator: ogerin) | cAMP reporter score ([1]; pH 6.5, modulator: ogerin) | surface expression score [2]
1 | I178E | -0.854 | -1.21 | -2.69 | -0.693
2 | A180V | -1.03 | – | -0.104 | 0.129
3 | A184_I185insGS | -0.234 | -1.14 | -1.63 | –
4 | N186G | 3.03 | 0.792 | 2.38 | 0.364
5 | Y187D | -0.971 | 0.285 | – | -1.43
6 | Y187E | -0.679 | -0.323 | -1.94 | –
7 | R189del | -1.25 | -1.51 | -1.07 | -2.18
8 | F190G | 1.33 | – | -1.8 | -0.407
9 | V192N | 2.65 | -0.092 | – | –
10 | F194H | 0.626 | -0.318 | -3.41 | -3.04
11 | L195_F196insG | -0.446 | -0.631 | -0.344 | –
12 | I198_L200del | -1.08 | -0.689 | -0.442 | –
13 | C199D | -0.403 | -0.326 | – | –
14 | C199K | -0.663 | -3.15 | -0.437 | -0.289
15 | C199L | 1.08 | – | – | 1.67
16 | L200_L202del | -1.49 | -3.52 | -1.17 | -2.19
17 | A203E | -0.925 | -2.94 | – | –
18 | A203H | 0.936 | – | -0.406 | -0.595
19 | Y205H | 0.382 | -0.186 | -0.444 | –
20 | Y205P | -2.02 | -1.11 | -1.11 | –
21 | Y205S | -0.051 | – | – | -0.283
22 | L209E | -2.62 | -0.681 | – | -0.642

Row | Variant | cAMP reporter score ([1]; pH 6) | cAMP reporter score ([1]; pH 6, modulator: ogerin) | cAMP reporter score ([1]; pH 6.5, modulator: ogerin) | surface expression score [2]
23 | R210S | 1.65 | 0.217 | -0.33 | –
24 | R210Y | -1.15 | – | -0.012 | -0.34
25 | R214G | -0.902 | 1.08 | 0.82 | 1.81
26 | R214K | -0.339 | -0.603 | -0.32 | 2.3
27 | Q219D | 2.26 | 1.82 | 2.12 | 2.36
28 | Q227D | 0.253 | -0.514 | -0.384 | 0.168
29 | Q227_R228insG | -0.624 | – | -2.35 | 0.414
30 | R228C | 2.16 | 0.177 | 1.05 | -0.495
31 | L229E | 0.756 | -0.385 | -0.416 | -1.15
32 | L229N | 2.35 | -0.638 | -0.426 | -0.26
33 | L229Y | -2.97 | -2.47 | -0.435 | -3.4
34 | V230C | -0.593 | -0.056 | 0.961 | -1.31
35 | V230H | -0.233 | -0.644 | -0.426 | –
36 | V230I | 2.77 | -0.076 | 2.4 | -1.27
37 | V230Y | -1.38 | – | -1.68 | -1.8
38 | V230_L231insGSG | -1.78 | -1.35 | – | -3.56
39 | V230_S232del | -0.584 | -0.665 | -0.947 | -0.394
40 | S232_T233insGSG | -0.138 | -0.632 | -1 | -2.6
41 | F237H | 0.115 | -3.47 | – | –
42 | A239F | 0.811 | – | 1.67 | –
43 | A239K | -0.089 | -0.628 | -1.64 | –
44 | C240D | -0.697 | -2.7 | -2.4 | –

Row | Variant | cAMP reporter score ([1]; pH 6) | cAMP reporter score ([1]; pH 6, modulator: ogerin) | cAMP reporter score ([1]; pH 6.5, modulator: ogerin) | surface expression score [2]
45 | C240Q | -0.035 | -0.395 | -0.968 | -1.7
46 | C240V | 3.05 | 0.855 | – | -0.336
47 | V246K | -1.01 | -2.56 | -0.619 | -3.28
48 | L248F | -0.409 | – | -0.436 | –
49 | R251F | -2.45 | -0.946 | -2.33 | -1.49
50 | R251Q | -1.51 | -0.71 | -0.955 | -0.801
51 | C258K | -0.198 | -0.634 | -1.14 | -1.53
52 | C258V | -1.69 | -1.97 | – | -2.79
53 | Y268K | -1.02 | -0.245 | -2.09 | -2.24
54 | T275_F277del | -1.01 | – | -0.609 | -0.427
55 | S276L | -0.258 | -0.464 | -1.06 | -0.744
56 | C279N | -1.09 | -2.01 | – | -2.52
57 | A281I | -0.921 | – | -0.5 | 0.866
58 | G302R | 2.47 | 0.128 | 2.08 | 1.56
59 | T309R | 2.48 | 0.521 | – | 1.33
60 | R317_A319del | -0.421 | -0.58 | -0.431 | -0.416
61 | A319G | 2.69 | -0.638 | -0.741 | 0.386
62 | G329Q | 1.22 | 1.04 | 0.68 | 0.855
63 | Q334Y | -0.561 | 0.677 | -0.429 | –
64 | E336_E337insG | 0.897 | 0.696 | 0.044 | 0.449
65 | E337T | 2.21 | 0.448 | 0.714 | –
66 | E337V | 1.99 | – | 1.1 | -0.414

Row | Variant | cAMP reporter score ([1]; pH 6) | cAMP reporter score ([1]; pH 6, modulator: ogerin) | cAMP reporter score ([1]; pH 6.5, modulator: ogerin) | surface expression score [2]
67 | E339N | 0.054 | -0.653 | – | 0.27
68 | A347T | -1.06 | 0.108 | -0.733 | 0.195
69 | G355N | 2.15 | 3.71 | 2.12 | 2.08
70 | G358del | -0.034 | -1.49 | – | –
71 | T14Y | – | 1.02 | -0.833 | 1.63
72 | V34R | – | -1.3 | -0.765 | –
73 | F36S | – | -0.647 | -0.772 | –
74 | K51Y | – | -1.05 | – | -0.408
75 | R53Q | – | -0.935 | -0.391 | –
76 | C61H | – | -0.663 | – | -1.7
77 | A66Y | – | -1.37 | -0.737 | -0.508
78 | L74N | – | -0.647 | -0.432 | –
79 | S88W | – | 0.761 | – | 0.535
80 | L92_S93insG | – | -0.669 | – | -0.317
81 | C94V | – | -1.5 | -0.117 | -0.782
82 | I99_L100insG | – | -1.12 | – | -2.71
83 | E103A | – | -0.929 | -3.13 | 0.197
84 | I107T | – | -1.38 | – | -0.246
85 | F111_L112insGSG | – | -1.71 | – | -2.64
86 | D118G | – | 0.232 | 0.646 | -1.4
87 | D118Q | – | -0.304 | 0.972 | -1.77

Scores with a large standard error are left out. Two further conditions of the source, in which the scores hardly spread, are not listed. Read del as a deletion of the residues named and ins as an insertion between two positions. For part of these data: The concentration of ogerin is not given here.
